According to patent EP4617282A1, “MEMBRANE FUSION INHIBITOR FOR […] VIRUS AND DRUG-RESISTANT STRAIN THEREOF, AND PHARMACEUTICAL USE THEREOF” (Institute Of Pathogen Biology, Chinese Academy Of Medical …, priority 2022, dated 2024):
Part of at least one peptide drawing is inferred or uncertain, most often the ends. Residues, ends and D or L forms follow the SMILES beside them. *: point of attachment. Succinyl(4-O-cholesteryl) = CC(C)CCC[C@@H](C)[C@H]1CC[C@H]2[C@@H]3CC=C4C[C@@H](OC(=O)CCC(=O)*)CC[C@]4(C)[C@H]3CC[C@]12C

Experiments:
[1] = system: T20-resistant NL4-3 mutant strains; assay: Pseudovirus inhibition, T20-resistant NL4-3 mutant strains; assay type: cell-based, HIV-1; conditions: background statement of the inventors
[2] = Circular dichroism of the lipopeptide alone (α-helix content, thermal stability); assay type: physicochemical; conditions: 10 µM; for Tm values: PBS pH 7.2, 20-98 °C at 2 °C/min; for α-helix contents: PBS pH 7.2, [θ]222
N42 polypeptide = target: T1, N42 polypeptide (Human immunodeficiency virus type 1 group M subtype B, UniProt P04578); assay: Circular dichroism of the complex of lipopeptide and N42 polypeptide; assay type: binding, HIV; conditions: complex with N42 polypeptide, each 10 µM; for α-helix contents of the complexes: PBS pH 7.2; for Tm values of the complexes: PBS pH 7.2, 20-98 °C at 2 °C/min
T1 construct: The polypeptide N42 is: Ac-[…]-NH2; made in house; host or cells: chemical peptide synthesis (no expression host)

replicative HIV strains = conditions: Xue et al, 2022, cited from earlier work
[3] = system: 36 representative international epidemic HIV-1 subtype pseudoviruses; conditions: Xue et al, 2022, cited from earlier work
[4] = administered at a low dose; Xue et al, 2022; cited from earlier work
[5] = system: SFT-induced drug-resistant NL4-3 strain; assay: Pseudovirus inhibition, SFT-induced drug-resistant NL4-3 strain; assay type: cell-based, HIV-1; conditions: mutant Q52R
HIV-2ROD virus = assay: Inhibition of HIV-2ROD virus (replicative); assay type: cell-based
HIV-2ST virus = assay: Inhibition of HIV-2ST virus (replicative); assay type: cell-based
SIVmac239 virus = assay: Inhibition of SIVmac239 virus (pseudotype); assay type: cell-based, SIV
SIVPBJ virus = assay: Inhibition of SIVPBJ virus (pseudotype); assay type: cell-based, SIV

T1 sequence (P04578 528-569): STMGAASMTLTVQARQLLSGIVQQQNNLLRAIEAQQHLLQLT

Row | SMILES | inhibitory activity against T20 resistant HIV strains (in words) [1] | Tm values [2] | α-helix contents [2] | α-helix contents of the complexes (N42 polypeptide) | Tm values of the complexes (N42 polypeptide) | average IC50 value (in words) (replicative HIV strains) | average IC50 increased in comparison to Lamivudine (3TC) (replicative HIV strains; comparator 3TC) | average IC50 increased in comparison to Zidovudine (AZT) (replicative HIV strains; comparator AZT) | average IC50 increased in comparison to the T20 (replicative HIV strains; comparator T20) | activity increased in comparison to the AZT ([3]; comparator AZT) | activity increased in comparison to the T20 ([3]; comparator T20) | therapeutic and prophylactic effects (in words) [4] | inhibitory activity increased as compared to lipopeptide LP-98 [5] | inhibitory activities increased as compared with lipopeptide LP-98 (HIV-2ROD virus) | inhibitory activities increased as compared with lipopeptide LP-98 (HIV-2ST virus) | inhibitory activities increased as compared with lipopeptide LP-98 (SIVmac239 virus) | inhibitory activities increased as compared with lipopeptide LP-98 (SIVPBJ virus)
1 | CC[C@H](C)[C@H](NC(=O)[C@H](CCCCN)NC(=O)[C@H](CCC(N)=O)NC(=O)[C@H](CCC(=O)O)NC(=O)[C@H](Cc1ccc(O)cc1)NC(C)=O)C(=O)N[C@@H](CCC(=O)O)C(=O)N[C@@H](CCC(=O)O)C(=O)N[C@@H](CC(C)C)C(=O)N[C@@H](CC(C)C)C(=O)N[C@@H](CCCCN)C(=O)N[C@@H](CCCCN)C(=O)N[C@@H](C)C(=O)N[C@@H](CCC(=O)O)C(=O)N[C@@H](CCC(=O)O)C(=O)N[C@@H](CCC(N)=O)C(=O)N[C@@H](CCC(N)=O)C(=O)N[C@@H](CCCCN)C(=O)N[C@@H](CCCCN)C(=O)N[C@@H](CC(N)=O)C(=O)N[C@@H](CCC(=O)O)C(=O)N[C@@H](CCC(=O)O)C(=O)N[C@@H](CCC(=O)O)C(=O)N[C@@H](CC(C)C)C(=O)N[C@@H](CCCCN)C(=O)N[C@@H](CCCCN)C(=O)N[C@@H](CC(C)C)C(=O)N[C@@H](CCC(=O)O)C(=O)N[C@@H](CCCCNC(=O)CCC(=O)O[C@H]1CC[C@@]2(C)C(=CC[C@H]3[C@@H]4CC[C@H]([C@H](C)CCCC(C)C)[C@@]4(C)CC[C@@H]32)C1)C(N)=O [LP-98] (Ac-YEQKIEELLKKAEEQQKKNEEELKKLEK(Succinyl(4-O-cholesteryl))-NH2) | significantly reduced inhibitory activity | 48 °C | 49% | 73% | 79 °C | extremely low picomolar (pM) level | 376368 folds | 120789 folds | 273368 folds | 3751 folds | 10504 folds | extremely strong therapeutic and prophylactic effects |  |  |  |  | 
2 | CC[C@H](C)[C@H](NC(=O)[C@H](CCC(=O)O)NC(C)=O)C(=O)N[C@@H](CCC(=O)O)C(=O)N[C@@H](CCC(=O)O)C(=O)N[C@@H](CC(C)C)C(=O)N[C@@H](CCC(=O)O)C(=O)N[C@@H](CCCCN)C(=O)N[C@@H](CCCCN)C(=O)N[C@H](C(=O)N[C@@H](CCC(=O)O)C(=O)N[C@@H](CCC(=O)O)C(=O)N[C@@H](CC(C)C)C(=O)N[C@@H](CC(C)C)C(=O)N[C@@H](CCCCN)C(=O)N[C@@H](CCCCN)C(=O)N[C@@H](C)C(=O)N[C@@H](CCC(=O)O)C(=O)N[C@@H](CCC(=O)O)C(=O)N[C@@H](CCC(N)=O)C(=O)N[C@@H](CCC(N)=O)C(=O)N[C@@H](CCCCN)C(=O)N[C@@H](CCCCN)C(=O)N[C@@H](CC(N)=O)C(=O)N[C@@H](CCC(=O)O)C(=O)N[C@@H](CCC(=O)O)C(=O)N[C@@H](CCC(=O)O)C(=O)N[C@@H](CC(C)C)C(=O)N[C@@H](CCCCN)C(=O)N[C@@H](CCCCN)C(=O)N[C@@H](CC(C)C)C(=O)N[C@@H](CCC(=O)O)C(=O)N[C@@H](CCCCNC(=O)CCC(=O)O[C@H]1CC[C@@]2(C)C(=CC[C@H]3[C@@H]4CC[C@H]([C@H](C)CCCC(C)C)[C@@]4(C)CC[C@@H]32)C1)C(N)=O)[C@@H](C)CC [LP-101] (Ac-EIEELEKKIEELLKKAEEQQKKNEEELKKLEK(Succinyl(4-O-cholesteryl))-NH2) |  | 56 °C | 62% | 82% | 88 °C |  |  |  |  |  |  |  | 3 folds | 2 folds | 2 folds | 2 folds | 8 folds
